Assay results as given in ChEMBL document CHEMBL1961873, “Compounds: GSK PKIS; Assays: Nanosyn kinase panel” (2012).
For part of these data: Most of the strong results are listed elsewhere, so they are rarer here than in the full data. This is a selection; strong and weak results do not stand in their true shares.

Key:
[1] = target: Serine/threonine-protein kinase PAK 6 (Homo sapiens) (UniProt Q9NQU5); conditions: at 1 µM;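 further: values are mean percent inhibition of PAK6 kinase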
[2] = test system: Tyrosine-protein kinase ABL1 (Homo sapiens), P00519 [E255K]; conditions: at 0.1 µM
[3] = test system: Tyrosine-protein kinase ABL1 (Homo sapiens), P00519 [E255K]; conditions: at 1 µM
[4] = test system: Tyrosine-protein kinase ABL1 (Homo sapiens), P00519 [H396P]; conditions: at 0.1 µM
[5] = test system: Tyrosine-protein kinase ABL1 (Homo sapiens), P00519 [H396P]; conditions: at 1 µM
[6] = test system: Tyrosine-protein kinase ABL1 (Homo sapiens), P00519 [M351T]; conditions: at 0.1 µM
[7] = test system: Tyrosine-protein kinase ABL1 (Homo sapiens), P00519 [M351T]; conditions: at 1 µM
[8] = test system: Tyrosine-protein kinase ABL1 (Homo sapiens), P00519 [Q252H]; conditions: at 0.1 µM
[9] = test system: Tyrosine-protein kinase ABL1 (Homo sapiens), P00519 [Q252H]; conditions: at 1 µM
[10] = test system: Tyrosine-protein kinase ABL1 (Homo sapiens), P00519 [T315I]; conditions: at 0.1 µM

Chain of UniProt Q9NQU5 (Q9NQU5 whole entry, looked up): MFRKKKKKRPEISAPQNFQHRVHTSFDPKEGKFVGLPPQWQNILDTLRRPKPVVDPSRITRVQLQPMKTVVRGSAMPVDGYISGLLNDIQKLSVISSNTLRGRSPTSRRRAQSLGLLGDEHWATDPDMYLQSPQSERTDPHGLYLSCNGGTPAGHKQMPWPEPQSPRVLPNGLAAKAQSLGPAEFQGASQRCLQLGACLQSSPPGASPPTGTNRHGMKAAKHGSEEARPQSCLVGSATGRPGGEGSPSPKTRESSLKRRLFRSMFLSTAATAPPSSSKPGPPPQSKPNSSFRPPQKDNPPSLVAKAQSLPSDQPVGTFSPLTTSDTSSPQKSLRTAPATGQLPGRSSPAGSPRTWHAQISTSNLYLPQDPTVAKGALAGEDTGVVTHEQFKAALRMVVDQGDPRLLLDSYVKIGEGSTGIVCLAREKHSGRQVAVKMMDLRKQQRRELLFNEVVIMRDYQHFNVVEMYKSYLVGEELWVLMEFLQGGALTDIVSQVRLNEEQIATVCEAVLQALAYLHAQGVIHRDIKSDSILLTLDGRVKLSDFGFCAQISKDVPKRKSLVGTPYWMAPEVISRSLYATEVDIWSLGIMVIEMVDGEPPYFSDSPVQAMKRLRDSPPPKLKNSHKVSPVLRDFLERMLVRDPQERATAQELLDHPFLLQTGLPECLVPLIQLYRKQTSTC

O=C1NC(=O)C(c2ccccc2Cl)=C1Nc1cc(Cl)c(O)c(Cl)c1
inhibition [1]: 2.83% | inhibition [2]: 3.35% | inhibition [3]: 3.75% | inhibition [4]: 3.38% | inhibition [5]: 6.54% | inhibition [6]: 2.32% | inhibition [7]: 4.78% | inhibition [8]: 2.34% | inhibition [9]: 5.46% | inhibition [10]: 2.52%

NC(=O)CCc1ccccc1Oc1nccc(-c2c(-c3ccc(F)cc3)ncn2C2CCNCC2)n1
inhibition [1]: -6.74% | inhibition [2]: -0.66% | inhibition [3]: -0.46% | inhibition [4]: -1.55% | inhibition [5]: 0.15% | inhibition [6]: 0.79% | inhibition [7]: 0.61% | inhibition [8]: 0.49% | inhibition [9]: 0.64% | inhibition [10]: -0.83%

CC(C)(C)c1ccc(Oc2nccc(-c3c(-c4ccc(F)cc4)ncn3C3CCNCC3)n2)cc1
inhibition [1]: -6.91% | inhibition [2]: 1.59% | inhibition [3]: 4.17% | inhibition [4]: 3.43% | inhibition [5]: 4.77% | inhibition [6]: 1.02% | inhibition [7]: 3.35% | inhibition [8]: 3.7% | inhibition [9]: 5.19% | inhibition [10]: 2.69%

Fc1ccc(-c2ncn(C3CCNCC3)c2-c2ccnc(Oc3cccc(C(F)(F)F)c3)n2)cc1
inhibition [1]: -4.55% | inhibition [2]: 3.44% | inhibition [3]: 4.64% | inhibition [4]: 4.67% | inhibition [5]: 6.23% | inhibition [6]: 2.52% | inhibition [7]: 3.25% | inhibition [8]: 5.29% | inhibition [9]: 5.37% | inhibition [10]: 2.52%

O=C(O)c1ccc(Oc2nccc(-c3c(-c4ccc(F)cc4)ncn3C3CCNCC3)n2)cc1
inhibition [1]: -0.55% | inhibition [2]: 0.44% | inhibition [3]: 1.58% | inhibition [4]: 3.47% | inhibition [5]: 3.39% | inhibition [6]: 2.2% | inhibition [7]: 0.58% | inhibition [8]: 4.14% | inhibition [9]: 5.56% | inhibition [10]: 0.99%

Fc1ccc(-c2ncn(C3CCNCC3)c2-c2ccnc(Oc3cccc(F)c3)n2)cc1
inhibition [1]: -7.2% | inhibition [2]: 1.93% | inhibition [3]: 3.41% | inhibition [4]: 5.32% | inhibition [5]: 6.96% | inhibition [6]: 0.57% | inhibition [7]: 3.04% | inhibition [8]: 3.71% | inhibition [9]: 5.14% | inhibition [10]: 3.41%

Fc1ccc(-c2ncn(C3CCNCC3)c2-c2ccnc(Oc3ccc(Cl)cc3)n2)cc1
inhibition [2]: 0.61% | inhibition [3]: 1.68% | inhibition [4]: 1.78% | inhibition [5]: 2.1% | inhibition [6]: -0.43% | inhibition [7]: 3.39% | inhibition [8]: -0.08% | inhibition [9]: 1.98% | inhibition [10]: 0.91%
